Data from the antibiotic and cytotoxicity screens of Wong et al. (2023).
The list shows a part of the results.

What was measured:
[1] = system: HSkMC (human skeletal muscle cells); assay: cytotoxicity call (relative viability < 0.9); conditions: 10 µM
[2] = system: HepG2; assay: cytotoxicity call (relative viability < 0.9); conditions: 10 µM
[3] = system: S. aureus RN4220; assay: growth inhibition call (relative growth <= 0.2); conditions: 50 µM

CC(C)=CCc1c(O)cc2oc(C)cc(=O)c2c1O
inactive: cytotoxicity call [1] | cytotoxicity call [2] | growth inhibition call [3]

COc1ccc(NC(=O)N(C)C[C@@H]2OCCCC[C@@H](C)Oc3ccc(NS(=O)(=O)c4ccccc4)cc3C(=O)N([C@H](C)CO)C[C@@H]2C)cc1
inactive: cytotoxicity call [1] | cytotoxicity call [2] | growth inhibition call [3]

C[C@@H]1CN([C@H](C)CO)C(=O)Cc2cc(NC(=O)Cc3cn(C)c4ccccc34)ccc2O[C@@H]1CN(C)S(C)(=O)=O
inactive: cytotoxicity call [1] | cytotoxicity call [2] | growth inhibition call [3]

Cc1ccc(S(=O)(=O)Nc2ccc3c(c2)C(=O)N([C@@H](C)CO)C[C@H](C)[C@H](CN(C)S(=O)(=O)c2ccc(Cl)cc2)OCCCC[C@@H](C)O3)cc1
inactive: cytotoxicity call [1] | cytotoxicity call [2] | growth inhibition call [3]

O=C1C(Cl)=C2OC[C@@]2(O)C[C@@H]2CCCN12
inactive: cytotoxicity call [1] | cytotoxicity call [2] | growth inhibition call [3]

CO[C@H]1CN(C)C(=O)c2ccc(NC(=O)c3ccc(F)cc3)cc2OC[C@@H](C)N(C(=O)CN(C)C)C[C@H]1C
inactive: cytotoxicity call [1] | cytotoxicity call [2] | growth inhibition call [3]

O=C1CCCNCC1
inactive: cytotoxicity call [1] | cytotoxicity call [2] | growth inhibition call [3]
